# Experimental data: PMC4336329 (PLoS ONE, 2015)
# In all, about 310,000 compounds went through this assay and about 2,200 (0.71%) showed an effect of 50% or more. The effect is printed as a negative number. The list shows a part of the results.
# Target: human ether-à-go-go-related gene (hERG) potassium channel (human, UniProt Q12809)
# Experiment: primary screen, population patch clamp on CHO cells stably expressing hERG
# Chain of human ether-à-go-go-related gene (hERG) potassium channel (Q12809 whole entry, looked up): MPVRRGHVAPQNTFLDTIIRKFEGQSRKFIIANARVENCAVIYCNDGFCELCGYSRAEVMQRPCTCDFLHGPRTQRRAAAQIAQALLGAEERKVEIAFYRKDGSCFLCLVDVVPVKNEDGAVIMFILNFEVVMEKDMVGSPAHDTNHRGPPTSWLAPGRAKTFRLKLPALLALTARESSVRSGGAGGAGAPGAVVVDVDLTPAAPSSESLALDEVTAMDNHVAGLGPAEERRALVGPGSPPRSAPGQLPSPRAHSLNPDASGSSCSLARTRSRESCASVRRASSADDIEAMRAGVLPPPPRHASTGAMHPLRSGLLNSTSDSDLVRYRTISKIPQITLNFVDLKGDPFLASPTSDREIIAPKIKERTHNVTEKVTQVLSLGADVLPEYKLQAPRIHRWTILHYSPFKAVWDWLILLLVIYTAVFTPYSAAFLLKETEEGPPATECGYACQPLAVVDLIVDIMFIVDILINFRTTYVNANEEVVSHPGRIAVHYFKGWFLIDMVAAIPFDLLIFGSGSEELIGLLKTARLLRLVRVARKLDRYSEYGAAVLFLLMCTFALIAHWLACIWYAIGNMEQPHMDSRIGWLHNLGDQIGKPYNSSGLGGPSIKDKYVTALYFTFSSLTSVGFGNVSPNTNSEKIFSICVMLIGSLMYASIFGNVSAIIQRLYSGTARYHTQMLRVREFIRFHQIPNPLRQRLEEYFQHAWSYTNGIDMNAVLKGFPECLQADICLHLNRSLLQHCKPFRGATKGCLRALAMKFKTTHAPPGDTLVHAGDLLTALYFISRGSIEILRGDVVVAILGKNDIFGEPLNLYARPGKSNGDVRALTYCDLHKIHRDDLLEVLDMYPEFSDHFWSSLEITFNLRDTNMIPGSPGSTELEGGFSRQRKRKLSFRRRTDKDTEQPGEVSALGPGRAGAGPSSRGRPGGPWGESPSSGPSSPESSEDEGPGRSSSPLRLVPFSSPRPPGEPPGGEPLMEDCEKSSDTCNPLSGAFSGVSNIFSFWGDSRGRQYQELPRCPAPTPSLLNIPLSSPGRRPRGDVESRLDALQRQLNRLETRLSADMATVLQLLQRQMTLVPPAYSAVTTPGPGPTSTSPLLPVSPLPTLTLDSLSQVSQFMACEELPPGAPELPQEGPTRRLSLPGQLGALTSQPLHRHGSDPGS
row,SMILES,"hERG current change (%, negative = inhibition) at 1uM [%]"
1,O=C(CSc1ncn[nH]1)N1CCN(c2nnc(-c3ccccc3)c3ccccc23)CC1,4.45
2,COc1ccc(-c2oc3ncn(Cc4ccco4)c(=N)c3c2-c2ccc(OC)cc2)cc1,3.3
3,CCN(CC)CCNc1nc(-n2nc(C)cc2C)nc2sc3c(c12)CC(C)(C)OC3,-13.2
4,Cc1ccc(C(=O)Nc2nnn(C)n2)cc1,10.7
5,Cc1ccc(NS(=O)(=O)c2ccc3c(c2)NC(=O)CO3)cc1Cl,15.5
6,O=C(/C=N/NC(=O)c1ccc(Cl)cc1Cl)c1ccccc1,6.83
7,Nn1c(SCC(=O)Nc2ccccc2)nnc(Cc2ccccc2)c1=O,7.54
8,Cc1cc(Cl)cc(Cl)c1OCCN1CCCC1,-5.68
9,CC(NCc1ccccc1OC1CCCC1)c1ccccc1.Cl (stereo not drawn),4.55
10,CC(C)Oc1ccc(/C=N/NC(=O)c2ccc(N(Cc3ccccc3)S(C)(=O)=O)cc2)cc1,8.24
11,CC(=O)OC1CC(n2ccc(NC(=O)c3ccccc3)nc2=O)OC1CO (stereo not drawn),7.03
12,Cc1ccc(NC(=S)N(CCCN2CCOCC2)Cc2ccco2)cc1Cl,5.44
13,COc1ccc(C(C)NC(=O)Cc2cccs2)cc1OC (stereo not drawn),9.88
14,COc1ccc(CCNC(=O)c2cc3c(C)nccc3[nH]c2=O)cc1OC,1.74
15,Cc1[nH]c2ccccc2c1SCc1nnc(SCc2ccc(Cl)cc2)n1C,9.11
16,COc1ccc(C2NCCC3(O)CCCCC23)c(OC)c1OC (stereo not drawn),-11.3
17,O=C(Cn1nnc(-c2ccccc2Cl)n1)N/N=C/c1ccc(-c2cccc(Cl)c2)o1,9.72
18,Cc1cc(-c2ccc(C)c(S(=O)(=O)NCC3CCN(Cc4ccccc4F)CC3)c2)on1,6.98
19,O=C(c1ccc(Cl)cc1[N+](=O)[O-])N1CCN(c2ccccn2)CC1,-5.36
20,COc1ccc(Cl)cc1Nc1nc(-c2sc(NC(=O)c3ccccc3)nc2C)cs1,13.1
21,O=C(Nc1cccc(Cl)c1N1CCCC1)c1ccco1,16.2
22,O=C(O)c1ccc(NCc2cccc(Br)c2)cc1,12.8
23,COC(=O)CSc1nnc(-c2ccc(OC)c(OC)c2)o1,6.76

row,SMILES,"hERG current change (%, negative = inhibition) at 1uM [%]"
1,NC(=O)NC(=O)CN1c2cccc3cccc(c23)S1(=O)=O,10.1
2,O=C(N/N=C/c1ccco1)c1ccc(N2CCCC2=O)cc1,11.2
3,CCOC(=O)N1CCN(C(=O)c2ccc(CS(=O)Cc3ccc(C)cc3)o2)CC1 (stereo not drawn),6.04
4,CC(=O)c1ccc(S(=O)(=O)NCCC(=O)OCC(=O)NCCc2ccccc2)cc1,11.6
5,O=C(CCC(=O)N(CC(=O)NC1CCCC1)c1cccc(F)c1)Nc1nccs1,-6.62
6,CCOC1=C/C(=C/c2c(N)n3nc(CC(=O)N4CCCCC4)sc3nc2=O)C=CC1=O,14.6
7,CC1=C(C(=O)OC2CCCCC2)C(c2ccc(C)o2)C2=C(CC(C)(C)CC2=O)N1 (stereo not drawn),0.211
8,CCC(=O)c1ccc(O)c(OC)c1,3.34
9,Cc1ccc2c(c1)N(CC(=O)NCc1cccnc1)C(=O)CO2,10.8
10,OCCNc1nc2ccccc2n1CC(O)c1ccccc1 (stereo not drawn),6.32
11,CN(C)C(=N)c1n[nH]nc1SCc1ccccc1.Cl,16.4
12,Cc1ccc(OCCN2CCN(c3nc(NCc4ccco4)c4ccccc4n3)CC2)cc1,2.8
13,O=C(Cc1c[nH]c2ccccc12)N1CCc2ccccc21,7.11
14,Cc1cc(C(=O)NCc2cccnc2)n(-c2ccccc2)n1,-5.81
15,CCn1c(SCC(=O)N2CCOCC2)nc2c(c1=O)SC(C)C2 (stereo not drawn),17
16,COC(=O)c1ccccc1NC(=O)Nc1ccc(C)cn1,14.2
17,CCOc1ccc2[nH]c(=O)c(CN(CCO)C(=O)c3ccccc3F)cc2c1,3.3
18,COc1cc(OC)c2c(-c3ccccc3)cc(=O)oc2c1C(CCN1CCCC1)c1ccc2c(c1)OCO2 (stereo not drawn),-12
19,Cc1c(NC(=O)C2CCCN2C(=O)c2cccs2)c(=O)n(-c2ccccc2)n1C (stereo not drawn),13.5
20,CCOC(=O)CN(C(=O)CSc1nnc2c(n1)[nH]c1ccccc12)c1ccccc1,5.75
21,CN(Cc1cnc2nc(N)nc(N)c2n1)c1ccc(C(=O)N[C@@H](CCC(=O)O)C(=O)O)cc1.O,12.6
22,O=C1C2C(C(=O)N1Cc1ccco1)C1C=CC2C12CC2 (stereo not drawn),14
